Consider 54 compounds from article PMC4336329 (PLoS ONE, 2015).

Each structure is given as a SMILES string. About 14,000 (4.5%) of roughly 310,000 compounds showed an effect of 50% or more. Effects have a minus sign here. The list shows a part of the results.
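Note: peak tail current of the secondary pulse compared with the same well before compound.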

Sequence of human ether-à-go-go-related gene (hERG) potassium channel (Q12809 whole entry, looked up): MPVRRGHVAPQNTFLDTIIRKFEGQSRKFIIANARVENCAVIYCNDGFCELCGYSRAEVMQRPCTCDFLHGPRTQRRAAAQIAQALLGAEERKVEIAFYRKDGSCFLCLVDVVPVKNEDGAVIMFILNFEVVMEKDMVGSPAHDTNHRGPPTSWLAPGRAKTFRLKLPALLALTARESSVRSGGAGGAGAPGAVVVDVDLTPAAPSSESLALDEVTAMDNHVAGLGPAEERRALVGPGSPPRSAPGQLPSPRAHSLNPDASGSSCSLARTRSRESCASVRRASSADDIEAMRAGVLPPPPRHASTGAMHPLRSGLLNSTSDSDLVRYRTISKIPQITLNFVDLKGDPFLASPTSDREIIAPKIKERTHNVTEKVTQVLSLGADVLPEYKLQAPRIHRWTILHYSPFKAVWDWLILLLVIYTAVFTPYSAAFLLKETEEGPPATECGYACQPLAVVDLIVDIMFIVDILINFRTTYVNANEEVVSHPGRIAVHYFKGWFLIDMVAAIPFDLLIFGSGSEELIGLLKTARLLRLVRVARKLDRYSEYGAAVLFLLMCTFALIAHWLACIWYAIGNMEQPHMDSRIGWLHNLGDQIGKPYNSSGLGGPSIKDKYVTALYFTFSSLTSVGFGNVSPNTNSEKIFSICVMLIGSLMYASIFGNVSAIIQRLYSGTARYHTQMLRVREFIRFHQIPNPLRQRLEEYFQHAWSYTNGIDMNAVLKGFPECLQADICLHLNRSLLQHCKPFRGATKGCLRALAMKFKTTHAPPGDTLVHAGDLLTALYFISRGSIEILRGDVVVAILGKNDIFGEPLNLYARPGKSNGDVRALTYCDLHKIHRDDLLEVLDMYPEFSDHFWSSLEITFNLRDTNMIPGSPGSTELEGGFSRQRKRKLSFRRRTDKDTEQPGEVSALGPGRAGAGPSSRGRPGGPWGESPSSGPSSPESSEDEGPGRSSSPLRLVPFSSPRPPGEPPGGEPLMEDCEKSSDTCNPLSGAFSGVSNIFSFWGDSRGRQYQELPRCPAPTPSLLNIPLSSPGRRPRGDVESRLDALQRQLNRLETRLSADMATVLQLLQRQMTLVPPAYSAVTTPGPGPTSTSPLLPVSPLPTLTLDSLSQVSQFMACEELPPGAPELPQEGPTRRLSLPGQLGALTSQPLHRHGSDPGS

This test concerns the target human ether-à-go-go-related gene (hERG) potassium channel (human, UniProt Q12809). The test can be described thus: primary screen, population patch clamp on CHO cells stably expressing hERG.
With `COc1ccccc1OCCOC(=O)Nc1ccccc1`, the “hERG current change (%, negative = inhibition) at 10uM” value turned out to be 10.1%.

On to `COC(=O)c1sc(-c2ccc(C(C)(C)C)cc2)cc1NC(=O)/C=C/C(=O)O`, for which the “hERG current change (%, negative = inhibition) at 10uM” value came out at 8.37%.

As to `COc1ccc(NC2=C(C(C)=O)C(c3ccccc3)C(C(C)=O)C(C)(O)C2)cc1` (stereo not drawn), the “hERG current change (%, negative = inhibition) at 10uM” value is given as -6.86%.

In the case of `O=C(NCc1ccccc1)/C(=C/c1ccc([N+](=O)[O-])cc1)NC(=O)c1ccco1`, the “hERG current change (%, negative = inhibition) at 10uM” value is -62.7%.

With `O=C(CCn1c(=O)oc2ccccc21)NC1=NCCS1`, the “hERG current change (%, negative = inhibition) at 10uM” value turned out to be 10.7%.

As for `Cc1ccc(CNC(=O)C2CCCN(S(=O)(=O)N3CC(C)CC(C)C3)C2)cc1` (stereo not drawn), the “hERG current change (%, negative = inhibition) at 10uM” value worked out at 0.631%.

On to `O=C(CC12CC3CC(CC(Br)(C3)C1)C2)Nc1nncs1`, for which the “hERG current change (%, negative = inhibition) at 10uM” value was found to be 12.6%.

With `O=C(c1cc(S(=O)(=O)NCc2ccco2)ccc1Br)N1CCOCC1`, the “hERG current change (%, negative = inhibition) at 10uM” value is recorded as -11.2%.

Regarding `COC(=O)CSc1nc2sc(C)c(C)c2c(=O)n1C`, the “hERG current change (%, negative = inhibition) at 10uM” value is -12.8%.

Turning to `O=C1NCCN1C(=O)c1ccco1`, the “hERG current change (%, negative = inhibition) at 10uM” value worked out at 9.96%.

With `CN(C)S(=O)(=O)c1cccc(C(=O)N=C2N=C3C=CC(Cl)=CN3Cc3ccccc32)c1`, the “hERG current change (%, negative = inhibition) at 10uM” value amounted to 14.2%.

As to `O=C(O)CSCC(=O)N1CCCN(c2nc3ccc(Cl)cc3s2)CC1`, the “hERG current change (%, negative = inhibition) at 10uM” value is listed as 5.89%.

Take `O=C(CSc1ncn[nH]1)Nc1ccc(OCc2ccccc2)cc1`: the “hERG current change (%, negative = inhibition) at 10uM” value came out at 8.78%.

On to `Cc1ccccc1NC(=O)C1CCCN(S(=O)(=O)c2ccc3c(c2)C(C)(C)C(=O)N3C)C1` (stereo not drawn), for which the “hERG current change (%, negative = inhibition) at 10uM” value is on record as 6.82%.

As for `CCOC(=O)c1c(NC(=O)C2CCCCC2)sc2c1CCN(CC)C2.Cl`, the “hERG current change (%, negative = inhibition) at 10uM” value is recorded as -51.7%.

In the case of `O=C(COC(=O)[C@@H]1CCCN1C(=O)c1cccs1)Nc1ccc(F)cc1[N+](=O)[O-]`, the “hERG current change (%, negative = inhibition) at 10uM” value is listed as -37.9%.

On to `CC1(C)CC(=O)C2=C(C1)N(c1ccc(F)cc1)C(=O)CC2c1ccsc1` (stereo not drawn), for which the “hERG current change (%, negative = inhibition) at 10uM” value is -16%.

In the case of `O=C(Cn1nc(Cc2cccnc2)c2ccccc2c1=O)Nc1cc(F)ccc1F`, the “hERG current change (%, negative = inhibition) at 10uM” value is -13.1%.

Consider `COc1ccc(-n2c(=O)[nH]c3cc(C(=O)NCCc4ccccc4)ccc3c2=O)cc1OC`, for which the “hERG current change (%, negative = inhibition) at 10uM” value was determined as 14.3%.

For the compound `CCCC1(C(=O)OCC)NC(c2cc(OC)c(OC)c(OC)c2)C2C(=O)N(CC)C(=O)C21` (stereo not drawn), the “hERG current change (%, negative = inhibition) at 10uM” value came to 16.4%.

Consider `O=[N+]([O-])c1cc(S(=O)(=O)N2CCCC2)ccc1NCCc1ccccc1`, for which the “hERG current change (%, negative = inhibition) at 10uM” value is recorded as 11.3%.

Consider `CCOC(=O)c1c(S(=O)(=O)NCC(=O)Nc2ccc(C)cc2)c(C)n(C)c1C`, for which the “hERG current change (%, negative = inhibition) at 10uM” value is given as -1.17%.

With `CCOc1ccc(NS(=O)(=O)c2ccc(C(=O)N3CCCC3)cc2)cc1`, the “hERG current change (%, negative = inhibition) at 10uM” value is 8.35%.

As for `CCn1cc(C(=O)C(F)(F)F)c2ccccc21`, the “hERG current change (%, negative = inhibition) at 10uM” value is recorded as -6.36%.

As for `COCCOC(=O)C1=C(C)NC(=O)NC1c1ccc(OC(=O)c2ccco2)c(OC)c1` (stereo not drawn), the “hERG current change (%, negative = inhibition) at 10uM” value came to 1.3%.

Take `CC(=O)Nc1ccc(S(=O)(=O)N2CCN(C(=O)c3ccco3)CC2)cc1`: the “hERG current change (%, negative = inhibition) at 10uM” value came out at 12%.

Consider `CCSc1nc2c(c(=O)[nH]1)C(c1cccs1)C(C(=O)OC)=C(C)N2` (stereo not drawn), for which the “hERG current change (%, negative = inhibition) at 10uM” value is reported as -0.799%.

For `O=C(NCCOc1ccccc1)c1cccc2c1C(=O)c1ccc(Cl)cc1S2(=O)=O`, the “hERG current change (%, negative = inhibition) at 10uM” value is -4.25%.

Take `CC1CCc2c(sc(NC(=O)COC(=O)c3ccc(NC(=O)CC#N)cc3)c2C#N)C1` (stereo not drawn): the “hERG current change (%, negative = inhibition) at 10uM” value came out at 10.4%.

Consider `Cc1cccc(NC(=O)COc2cccc3c2CCN(Cc2ccccc2)C3=O)c1C`, for which the “hERG current change (%, negative = inhibition) at 10uM” value was -5.8%.

For the compound `Cc1cccc(NC(=O)CNC(=O)COc2ccc(C(=O)c3ccc(F)cc3)cc2)c1C`, the “hERG current change (%, negative = inhibition) at 10uM” value is -5.25%.

As for `c1cc(-c2nnc3n2CCC3)[nH]n1`, the “hERG current change (%, negative = inhibition) at 10uM” value is given as 12.5%.

Turning to `CC1(C)OC2OC(COC(=O)c3ccc([N+](=O)[O-])cc3)C3OC(C)(C)OC3C2O1` (stereo not drawn), the “hERG current change (%, negative = inhibition) at 10uM” value was -10.7%.

For `COc1cc(/C=N/NC(=O)CN(Cc2ccco2)S(=O)(=O)c2ccccc2)ccc1O`, the “hERG current change (%, negative = inhibition) at 10uM” value was -42.5%.

Take `COc1ccc(CCNC(=O)C(Sc2ccccn2)c2ccccc2)cc1OC` (stereo not drawn): the “hERG current change (%, negative = inhibition) at 10uM” value stood at 3.25%.

As for `COC(=O)c1c(-c2cccc(C)c2)csc1N`, the “hERG current change (%, negative = inhibition) at 10uM” value is 6.74%.

Regarding `CCn1cc(/C=C(\NC(=O)c2ccccc2Cl)C(=O)N2CCOCC2)c2ccccc21`, the “hERG current change (%, negative = inhibition) at 10uM” value was -2.35%.

Turning to `COc1ccc(C(=O)Nc2ccccc2N2CCN(C(=O)C(C)C)CC2)cc1Cl`, the “hERG current change (%, negative = inhibition) at 10uM” value is on record as -30.9%.

As for `CC(CN1CCNCC1)(NS(=O)(=O)c1ccccc1)c1ccccc1` (stereo not drawn), the “hERG current change (%, negative = inhibition) at 10uM” value was -44.7%.

In the case of `O=C(Nc1ncccn1)c1ccc([N+](=O)[O-])o1`, the “hERG current change (%, negative = inhibition) at 10uM” value is given as 11.8%.

For the compound `N#Cc1nc(Cc2cccc3ccccc23)oc1NCCN1CCCCC1`, the “hERG current change (%, negative = inhibition) at 10uM” value was -60.3%.

`COc1cc(C2/C(=C(\O)c3ccc4c(c3)CC(C)O4)C(=O)C(=O)N2CCCn2ccnc2)ccc1O` (stereo not drawn): the “hERG current change (%, negative = inhibition) at 10uM” value was 10.1%.

On to `Cc1cc(NC(=O)CSc2ncnc3ccccc23)no1`, for which the “hERG current change (%, negative = inhibition) at 10uM” value was 21.8%.

Consider `c1ccc2c3c([nH]c2c1)C(C1CCCCC1)N(Cc1ncc[nH]1)CC3` (stereo not drawn), for which the “hERG current change (%, negative = inhibition) at 10uM” value is recorded as -39.5%.

Turning to `O=C(COC(=O)c1cc(-c2ccccn2)nc2ccccc12)Nc1ncc(C(F)(F)F)cc1Cl`, the “hERG current change (%, negative = inhibition) at 10uM” value stood at 17.8%.

Turning to `CCCNC(=O)Cn1c(=O)cnc2ccccc21`, the “hERG current change (%, negative = inhibition) at 10uM” value is 26.3%.

As for `C=C(C)C(=O)NC1=NN(c2ccccc2)C(=O)C1`, the “hERG current change (%, negative = inhibition) at 10uM” value is 12.7%.

As to `COc1ccc2[nH]cc(CCNC(=O)c3ccc4ccccc4n3)c2c1`, the “hERG current change (%, negative = inhibition) at 10uM” value is listed as 6.73%.

Turning to `Cc1cccc(OCC(O)CN2CCNCC2)c1.Cl` (stereo not drawn), the “hERG current change (%, negative = inhibition) at 10uM” value was 26.5%.

For `CCOC(=O)C(C)S(=O)(=O)c1ccc(C(F)(F)F)cn1` (stereo not drawn), the “hERG current change (%, negative = inhibition) at 10uM” value was found to be 4.21%.

With `C[C@@H](C(=O)N[C@H](C(=O)O)c1ccccc1)n1nnc2ccccc2c1=O`, the “hERG current change (%, negative = inhibition) at 10uM” value is listed as 13.7%.

For the compound `Cc1cc(C)nc(Sc2nc(Cl)nc(N(c3ccccc3)c3ccccc3)n2)n1`, the “hERG current change (%, negative = inhibition) at 10uM” value was found to be 12.8%.

Turning to `O=[N+]([O-])c1ccc(/C=N/n2c(-c3cccnc3)n[nH]c2=S)cc1`, the “hERG current change (%, negative = inhibition) at 10uM” value is 17.2%.

As to `CN(CC(=O)Nc1cccc(F)c1)C(=O)CN1C(=O)NC2(CCCCC2)C1=O`, the “hERG current change (%, negative = inhibition) at 10uM” value is on record as 0.571%.
